Test results published in the BET-seq Pho4 binding data (Le et al. 2018).
The other results are listed elsewhere or left out. Values were computed here from the reads of four pooled replicates and scatter widely.

molecular target: T1, Pho4 (S. cerevisiae) (UniProt P07270); experiment: relative binding free energy (BET-seq); higher = weaker binding; conditions: reference: library average
T1 sequence: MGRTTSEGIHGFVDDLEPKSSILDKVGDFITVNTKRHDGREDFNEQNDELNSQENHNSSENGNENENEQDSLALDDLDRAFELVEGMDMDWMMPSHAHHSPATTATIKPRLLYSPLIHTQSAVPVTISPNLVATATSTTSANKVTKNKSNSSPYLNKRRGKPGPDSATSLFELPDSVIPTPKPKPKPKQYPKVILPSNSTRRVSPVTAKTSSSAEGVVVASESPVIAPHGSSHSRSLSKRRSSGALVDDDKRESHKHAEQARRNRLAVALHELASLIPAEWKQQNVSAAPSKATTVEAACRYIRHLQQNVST

Relative binding free energy, 0.293 kJ/mol:
TGGATCACGTGTATTT
GTGTACACGTGCGGAT
TTGTGCACGTGGAAGG
GTGATCACGTGGTATC

Relative binding free energy, 1.38 kJ/mol:
GGATTCACGTGCTGGC
AAGTTCACGTGGATAT
GGCTTCACGTGTGCGG
GTTTTCACGTGGCCTG
GACTTCACGTGTGTGT

Relative binding free energy, 0.335 kJ/mol:
ATAGGCACGTGGAATG
TCTCGCACGTGTGGTG
TTTAGCACGTGATTGT
CTATTCACGTGGGGCG
TGGCTCACGTGTAGGT
AGAATCACGTGTTAGT
GGTGGCACGTGAATTG

Relative binding free energy, 0.0837 kJ/mol:
AGGTACACGTGGGGAG
TGAAGCACGTGAGCGT
CTTGACACGTGTGTTT
TGAGCCACGTGTTTTG
GTTACCACGTGGCTGG
TCAGGCACGTGGAGGC
TCGATCACGTGTGTTG

Relative binding free energy, 1.34 kJ/mol:
ATCGTCACGTGAGGTA
TAGTTCACGTGTATGA

Relative binding free energy, -0.293 kJ/mol:
GTGTCCACGTGTGGAT
CGGAGCACGTGTTTTT
TCTCGCACGTGTGTTG
TCTATCACGTGGGCGG
TGGGTCACGTGGGCGA

Relative binding free energy, 1.55 kJ/mol:
TGTTTCACGTGGAGCC
CGGTACACGTGAGAGT
CTGTTCACGTGGACGT
GGAATCACGTGAAAGT

Relative binding free energy, 1.51 kJ/mol:
CATGTCACGTGAAAGG

Relative binding free energy, -0.126 kJ/mol:
GGGTGCACGTGCGAGC
TTCGGCACGTGTTTTC
TACGGCACGTGTATGT
GTATACACGTGGGGCT
ATTACCACGTGTGGTT
TCTGGCACGTGTGGTG
TGTGGCACGTGTCGTT
CGGATCACGTGGGAGT

Relative binding free energy, 0.126 kJ/mol:
TTTTGCACGTGCTATG
AGCGGCACGTGTTATT
TAAGTCACGTGGGTGG
TTAGGCACGTGATTGT
TGATGCACGTGACGTG
TTGGTCACGTGGCAAG

Relative binding free energy, 1.09 kJ/mol:
ATGGTCACGTGAGATG
CGTGTCACGTGATTTT
TGCATCACGTGAATGT

Relative binding free energy, -0.0837 kJ/mol:
TTAGACACGTGATGTG
CGGGGCACGTGAAAGG
GTTGACACGTGGGTTG
GCTGGCACGTGTGTAT
TGTTGCACGTGCGGAC
GGCATCACGTGGGGGA

Relative binding free energy, 0.209 kJ/mol:
GTAGGCACGTGTAGCG
ATAATCACGTGTGCGG
GAGAACACGTGGGTGA
GAGTGCACGTGTTCTA

Relative binding free energy, -1.13 kJ/mol:
CGGTGCACGTGGGCGT
ATTGGCACGTGCTTTT

Relative binding free energy, 1.05 kJ/mol:
TAGTTCACGTGTCTTG

Relative binding free energy, -1.21 kJ/mol:
ATTGGCACGTGCTATA

Relative binding free energy, 1.59 kJ/mol:
GGGATCACGTGTGTAT

Relative binding free energy, 0.544 kJ/mol:
ATAGGCACGTGAAGTT
TAGATCACGTGTTATG
CCGGTCACGTGGGCTT
CTGTACACGTGTAGTA
CAGTACACGTGTGTTG
GTAATCACGTGTTGTT

Relative binding free energy, 0.795 kJ/mol:
TGTGTCACGTGAACAT
GTCGTCACGTGATGTT
ATTTACACGTGTGGTT
GGACTCACGTGTTGTA

Relative binding free energy, 0.628 kJ/mol:
AATTGCACGTGAAGGA
GTACGCACGTGATTTG
ACGTTCACGTGGTGGT
ACGTTCACGTGTCGTG

Relative binding free energy, -0.669 kJ/mol:
TTAGGCACGTGCGGCT
AAGTCCACGTGGTTGT

Relative binding free energy, -0.711 kJ/mol:
TGGGCCACGTGGGTCT

Relative binding free energy, -0.418 kJ/mol:
ACAGACACGTGGGGTT
ATCGGCACGTGGTCGT
TGACACACGTGTGGTG

Relative binding free energy, 1.72 kJ/mol:
TGTAACACGTGAAGGC
GGATGCACGTGAATTT

Relative binding free energy, -0.0418 kJ/mol:
GTGGGCACGTGATTGA
GGTGTCACGTGGGTGA
CAAGGCACGTGTATGG
ATAGACACGTGGAGTG
TATGACACGTGTTTAG
GAGGTCACGTGGGTAA
ATGTACACGTGGGTCC
CTTAGCACGTGGAGTG

Relative binding free energy, -0.167 kJ/mol:
ATTAACACGTGGATGG
CTGTGCACGTGTGTTA

Relative binding free energy, 0.753 kJ/mol:
TGGTACACGTGATAGG
GATTACACGTGTTGAT
CTCGTCACGTGTGTTT
GGCGTCACGTGTTGTG

Relative binding free energy, -0.502 kJ/mol:
GTCAACACGTGGGGGG
GTTAGCACGTGGGCAA

Relative binding free energy, 1.26 kJ/mol:
AGTATCACGTGATGCG

Relative binding free energy, -0.879 kJ/mol:
ATCGGCACGTGGGGGA
CTGGGCACGTGCTGTG

Relative binding free energy, -1 kJ/mol:
AATACCACGTGGGGTT

Relative binding free energy, -0.753 kJ/mol:
TATGGCACGTGGATCT
TGAAGCACGTGGAAGG

Relative binding free energy, 0.377 kJ/mol:
GGTATCACGTGGGTCA
ATGGTCACGTGAGCTT
GGGGTCACGTGCCGGT
TTGACCACGTGAGTGT

Relative binding free energy, -0.251 kJ/mol:
AGGTACACGTGGCGGA
CTCGTCACGTGGCGGG
TTATGCACGTGGTTTA
TGAAACACGTGGAGTG
GGGAGCACGTGGGTTT

Relative binding free energy, 0.251 kJ/mol:
TTGTACACGTGCGTTG
GGGTACACGTGCGGTT
CAGTGCACGTGTTCTG
GCTTGCACGTGTAGGT
TGTGCCACGTGAGGCG
CGTGTCACGTGGTGAC
CGTGGCACGTGAGTGG
GTTGTCACGTGGGGGT
TGAGGCACGTGAGGCC

Relative binding free energy, -0.335 kJ/mol:
ATGACCACGTGTTTGG
GTGGGCACGTGCGGAG
TGGAGCACGTGTATTT
TTGAGCACGTGTCCGT
CGTGGCACGTGTGTGA

Relative binding free energy, 0.92 kJ/mol:
TGATGCACGTGAATGT
GTGGTCACGTGATCTA
ATCTTCACGTGGGGGA

Relative binding free energy, 0.711 kJ/mol:
TGAGTCACGTGTATGG
GGGCTCACGTGTTGAA
TAGGTCACGTGAGTGA
GTGAGCACGTGAATGG

Relative binding free energy, 0.502 kJ/mol:
TTTTTCACGTGCGCGG
GCTCTCACGTGGGTTT

Relative binding free energy, 1.21 kJ/mol:
CGTTACACGTGAGGGG
GGGGACACGTGACAGT

Relative binding free energy, -1.17 kJ/mol:
GCGAGCACGTGGGTAG
AGTGGCACGTGGTCCG

Relative binding free energy, 1.13 kJ/mol:
GAAGTCACGTGTTTCT
ATTTTCACGTGTGGAT
TATTTCACGTGATGTA
TAGCACACGTGTGGAT
GTGTTCACGTGCATTT

Relative binding free energy, 0 kJ/mol:
TATTACACGTGGTTCT
TTAAGCACGTGGAGCG
TTCGACACGTGGAGGG
AAGGGCACGTGTGATG
CGGCGCACGTGTGTTA
GGGTCCACGTGGGATA

Relative binding free energy, -0.837 kJ/mol:
AAAGGCACGTGGTAGC
TTTGGCACGTGGCCCG
GGGGGCACGTGGGAGC

Relative binding free energy, 0.0418 kJ/mol:
GAAGGCACGTGTAGGC
TATGTCACGTGGTCTG
AGATACACGTGGTTGG
GATTGCACGTGGACGT
TGTTACACGTGGGGCG

Relative binding free energy, 0.586 kJ/mol:
AGGTGCACGTGACTTT
GTGTCCACGTGGTTTA
GATGGCACGTGATGGG

Relative binding free energy, 1 kJ/mol:
TCGGTCACGTGAAATG
GTTTACACGTGATGGC
TGTTACACGTGAATTG
GGTGTCACGTGATGAA
CGGATCACGTGTAGGT

Relative binding free energy, 1.17 kJ/mol:
TTAGTCACGTGAAGCT

Relative binding free energy, -1.26 kJ/mol:
CGACGCACGTGGGTGG

Relative binding free energy, -0.962 kJ/mol:
ATGGCCACGTGGGGGT
GGTGCCACGTGGGTGA

Relative binding free energy, 0.962 kJ/mol:
GTCTTCACGTGGATGT
GTTTTCACGTGATCGT

Relative binding free energy, -0.209 kJ/mol:
GTTAACACGTGCTGGG
CAGGGCACGTGTTGGA
AGGGTCACGTGCCGTT
AGTGGCACGTGGACGG
AGGGCCACGTGGTTAG
GCTGGCACGTGTTAGG
CCGAGCACGTGGTGTT

Relative binding free energy, -0.377 kJ/mol:
GTACACACGTGGGGTG
CGCAACACGTGGGTTG
TACTGCACGTGGATGG
TAAGGCACGTGGAGTT
GGTGCCACGTGTATTG
AGGGGCACGTGTTAAT
TGACGCACGTGTGTGT

Relative binding free energy, 0.167 kJ/mol:
TATGTCACGTGGGGGA
ATTCACACGTGAGTGT
CTGATCACGTGGTTTG
TATGACACGTGTGGGC
TTGAGCACGTGGATCA

Relative binding free energy, 0.46 kJ/mol:
TAAGTCACGTGGAAGG
GTGTCCACGTGATGTG
TTAAACACGTGTGGGA
AAGGTCACGTGTGGCG
GATTACACGTGTTATG

Relative binding free energy, 0.879 kJ/mol:
GTGGTCACGTGTGGGG
GAGTGCACGTGATTAG
GGGTTCACGTGCGGGC
AATATCACGTGTCTTA
GAGGTCACGTGTGTGA
CGGATCACGTGAGTTG

Relative binding free energy, 0.418 kJ/mol:
AAGCACACGTGTGGTT
TCTATCACGTGGTAAT

Relative binding free energy, -0.92 kJ/mol:
TAGGCCACGTGGGGAG

Relative binding free energy, 1.67 kJ/mol:
TTTTTCACGTGGAACT

Relative binding free energy, 1.42 kJ/mol:
GTGGACACGTGAGCTG
GTTGTCACGTGATGTC
GTGCTCACGTGAGGAT
CTTTTCACGTGGAGTA

Relative binding free energy, 0.669 kJ/mol:
AATTGCACGTGTAGCT
TTTTCCACGTGATGAG

Relative binding free energy, -0.628 kJ/mol:
GGAGGCACGTGCGGGA

Relative binding free energy, 0.837 kJ/mol:
TGGTACACGTGATGGG
CTTTGCACGTGACTTT
GCATTCACGTGGCTGT
AGGGTCACGTGAGGGT

Relative binding free energy, 1.3 kJ/mol:
GTTTTCACGTGTTTTA
TTATTCACGTGTTGGA
AGTTTCACGTGAAAGT

Relative binding free energy, -0.586 kJ/mol:
CTTAGCACGTGGGGAT
CTTTGCACGTGGGTCA
